According to PubChem BioAssay AID1508623 (National Center for Advancing Translational Sciences (NCATS), 2021):
Out of some 48,000 compounds screened, about 450 (0.94%) were called active. About 19% were inconclusive and are not listed. The call rests on the fitted dose curve; in most records, active means well fitted inhibition curve with a large enough effect; inconclusive means small, poorly fitted or top-dose-only effect; inactive means no such curve, though single readings can be large or run the other way. The list shows a part of the results.

experiment: Primary qHTS for Identification of Small Molecule Inhibitors of Huntingtin Promoter Activity; conditions: HEK293 HTT promoter firefly luciferase reporter (activity 0% = vehicle and -100% = no light), 24 h; series mostly up to 57.5 µM; activity change, negative = inhibition: at the top concentration; further: nearly all actives have a fitted effect of over 50% in size
How it was run: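 Firefly luciferase signal from promoter-reporter HEK293 cells was scaled between vehicle (0%) and zero RLU (-100%). Compounds were tested at final concentrations of up to 57.5 uM over 24 h at 37 degrees C. PTC124 at 50 uM final served as control inhibitor.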
Potency means the concentration at half of the fitted maximal effect.

Activity change, negative = inhibition, inactive:
COc1ccc(CNC(=O)c2cccn2-c2nnc(N3CCCCC3)s2)c(OC)c1 -22.6%
Cc1ccc(CSc2nc3ccncc3n2Cc2nc(-c3ccccc3C)oc2C)cc1 -4.88%
O=C(Cn1c(=O)n(Cc2ccc(C(=O)NCc3ccc4c(c3)OCO4)cc2)c(=O)c2ccccc21)Nc1ccccc1F -5.44%
CCCNC(=O)c1c(NC(=O)c2ccccc2)sc2c1CCC(C(C)(C)C)C2 (stereo not drawn) -7.33%
COc1ccc(-n2ccn(CC(=O)Nc3ccc(C)cc3C)c(=O)c2=O)cc1 -9.21%
CCCc1nnc(NC(=O)C(CC)Sc2nnc3c4ccccc4n(C)c3n2)s1 (stereo not drawn) -22.7%
COc1ccc(CNC(=O)c2sc3nc4n(c(=O)c3c2C)CCC4)cc1 14.5%
COc1ccc2c(c1)c1c(c(=O)n(-c3cccc(C)c3)c(=O)n1CC(=O)NCc1ccc(C)cc1)n2C 2.71%
CC(C)(C)c1ccc(C(=O)NC(Cc2c[nH]c3ccccc23)C(=O)OCC(=O)c2ccc(Br)cc2)cc1 (stereo not drawn) -17.3%
Nc1ncnc2c1ncn2[C@@H]1O[C@H](CO)C[C@@H]1O -29.9%
Cc1ccc(OCC(=O)Nc2ccc3nn(-c4ccc(C)cc4)nc3c2)cc1 24.3%
Cc1cccc(CCNC(=O)CCS(=O)(=O)c2cc3c(cc2C)NC(=O)CO3)c1 -7.38%
Cc1nn(CCC(=O)Nc2ccccc2Br)c(=O)c2nn(-c3ccccc3)c(C)c12 -8.49%
CCOC(=O)N1CCC2(CC1)OC(=O)C(C)=C2C(=O)NCc1ccccc1OC -7.63%
COc1ccccc1N1CCN(C(=O)CNS(=O)(=O)c2ccc(Br)s2)CC1 -39.1%
Cc1cc(Cl)ccc1OCC(=O)N(Cc1ccc(N(C)C)cc1)C1CCS(=O)(=O)C1 (stereo not drawn) -37.2%
CCOC(=O)c1cc(-c2ccc(C)cc2)n(CC(=O)Nc2ccc(OC)cc2OC)c1C 4.19%
Cc1ccc(NC(=O)CSc2nccn2C2CCCC2)cc1Cl -6.12%
CCN1CCN(C(c2ccc(F)cc2)c2sc3nc(-c4ccco4)nn3c2O)CC1 (stereo not drawn) -3.73%
Cc1ccc(S(=O)(=O)CCC(=O)N2CCN(c3nc4c(C)c(C)ccc4s3)CC2)cc1 0%
COc1ccc(N2CCN(C(c3ccc(F)cc3)c3sc4nc(-c5ccco5)nn4c3O)CC2)cc1 (stereo not drawn) -3.57%
Cc1ccc(OCC(=O)Nc2nonc2-c2ccc(Br)cc2)cc1 -23.2%
CCCCCN(C)CCC(O)(P(=O)(O)O)P(=O)(O)O -7.04%
CC(=O)N1CCCC1c1nc2ccccc2n1Cc1ccccc1F (stereo not drawn) -1.89%
CC(C)OCCCNC(=O)CN1C(=O)c2ccccc2Sc2ncccc21 -8.41%
O=C(Nc1cccc2c1CCCC2)N1CCOc2ccc(Cl)cc21 -6.17%
CCCC(=O)Nc1ccc2nc(SCC(=O)N3CCOCC3)sc2c1 3.05%
Cc1oc2ncnc(N3CCOCC3)c2c1C(=O)NCc1ccc(Cl)cc1 -19.6%
N#C/C(=C\c1ccc(-c2cccc(Cl)c2)o1)C(=O)Nc1cccc(C(F)(F)F)c1 -16.2%
Fc1ccc(N2CCN(c3ncnc4[nH]ncc34)CC2)cc1 -22.5%
CCCn1cnc2cc(NCc3ccc(OC)cc3OC)ccc21 2.26%
Cc1cc(=O)oc2cc(OCC(=O)Nc3ccc(O)c(C(=O)O)c3)ccc12 -6.06%
CCOc1ccc(CC(=O)N2CCc3cc(OC)c(OC)cc3C2COc2ccc3c(C)cc(=O)oc3c2)cc1 (stereo not drawn) -16.8%
Cc1ccc(CNC(=O)CS(=O)(=O)Cc2nc(-c3ccccc3C)oc2C)cc1 -14.6%
CCCCCn1c(=O)[nH]c2cc(C(=O)NCc3ccccc3)ccc2c1=O -4.64%
COc1ccc(CNC(=O)Cc2c(C)c3c(cc(C)c4c(C)c(C)oc43)oc2=O)cc1OC -0.27%
CCN(CC)S(=O)(=O)c1ccc2c(c1)N(CC(=O)NCCCN1CCN(c3cc(Cl)ccc3C)CC1)C(=O)CO2 -30%
Cc1cccc(Cn2c(SCc3ccc(C(=O)NC4CCCC4)cc3)nc3ccncc32)c1 -26.5%
Cc1ccc(NC(=O)c2sc(-n3nc(C)c(Cc4ccc5c(c4)OCO5)c3C)nc2C)cc1Cl -0.699%
Cc1cccc(-c2noc(CNC(=O)c3ccccc3Br)n2)c1 2.92%
Cc1cccc(NC(=O)C2CCN(c3cnccn3)CC2)c1 -6.49%
CC1CCN(S(=O)(=O)c2ccc3c(c2)oc(=O)n3CC(=O)O)CC1 -2.26%
COc1ccc(CC(=O)Nc2ccc3nc(N4CCCCC4)cc(C)c3c2)cc1 -23.6%
CCOC(=O)c1c(NC(C)=O)c2c3c(sc2n1Cc1nc(-c2ccccc2Cl)oc1C)CCCC3 -26%
Cc1ccc(CNC(=O)c2cc3c(s2)-c2c(C)cccc2OC3)cc1 -16.2%
Cc1ncc([N+](=O)[O-])n1C 7.78%
COc1ccc2c(c1)c1c(c(=O)n(Cc3ccccc3)c(=O)n1CC(=O)NCc1ccccc1)n2C -13%
COc1ccc(CNCc2c(C(=O)O)n(Cc3ccc(F)cc3)c3cc(C)ccc23)cc1OC -22.9%
CCOCCCNC(=O)c1ccc(-n2c(-c3ccccc3)cc3c2CCCCC3)cc1 12.6%
CCC(=O)N1CCc2cc(Br)cc(S(=O)(=O)CCC(=O)Nc3cccc(C)c3C)c21 -5.19%
COc1ccccc1NC(=O)c1sc2nc3c(cc2c1N)CN(Cc1ccccc1)CC3 -25.3%
COCCn1c(C)cc(O)c(C(c2ccc(F)cc2)N2CCN(c3ccccc3)CC2)c1=O (stereo not drawn) -2.92%
CCOC(=O)c1c(C)c(-c2ccccc2)n(CC(=O)NCCc2cccc(C)c2)c1C 1.04%
O=C(CSc1nc(=O)[nH]c2c1CCCC2)NCc1ccc(F)cc1 -13.5%
N#Cc1ccccc1Cn1cnc2nc3c(cc2c1=O)CCCC3 -8.48%
CCc1cc(=O)[nH]c(SCc2nc(-c3ccccc3)no2)n1 -32.3%
Cc1cccc(CC(=O)NCc2nc3cccnc3n2Cc2ccc(F)cc2)c1 -6.76%
CCCOc1ccc(C(=O)Nc2ccc(NC(=O)c3ccccc3)c(C)c2)cc1 -6.01%
Cc1nnc2c(N3CCN(c4ccccc4F)CC3)nc3ccc(C(=O)c4ccccc4)cc3n12 13.8%
CCOC(=O)C1CCC(CN(Cc2ccc(OC)cc2)S(=O)(=O)c2ccc(F)c(C(=O)Nc3c(C)cccc3C)c2)CC1 (stereo not drawn) 1.89%
CS(=O)(=O)Nc1ccccc1C(=O)OCc1cc(=O)n2nc(C3CCCCC3)sc2n1 -4.1%
Cc1cc(F)ccc1NC(=O)CS(=O)(=O)c1cccc2nsnc12 7.5%
Cc1ccccc1Nc1c(-c2ccccc2)nc2cccc(C)n12 -15.1%
O=C(Cn1cnc2c(nc3n2CCCCC3)c1=O)Nc1ccc(F)c(Cl)c1 -23.2%
COc1ccc(CNc2nc(SCc3ccccc3Cl)nc3ccccc23)cc1 -27.3%
CCOC(=O)C(C#N)=C(c1ccccc1)c1ccccc1 -13.5%
COc1ccc(N2CC(NC(=O)C3CCCC3)CC2=O)cc1OC (stereo not drawn) -3.33%
Cn1nc(C(=O)N2CCN(c3ccc(F)cc3)CC2)c2c1-c1ccccc1SC2 -3%
COc1ccc(CCNC(=O)c2cn(C)c3ccc(S(=O)(=O)N(C)C)cc3c2=O)cc1OC 2.78%
CC(C)c1ccc(NC(=O)Cn2nnc(C(=O)NCc3ccc(Cl)cc3)c2N)cc1 -1.27%
CCN(C(=O)c1cn(CC(C)C)c(=O)c2cc(OC)c(OC)cc12)c1cc(OC)ccc1OC -12.8%
COc1ccc2c(c1)sc1ncc(C(=O)NCc3cccc(C)c3)c(=O)n12 -6.47%
COc1ccc(NC(=O)CCc2nnc3n(Cc4ccc(C)cc4)c(=O)c4ccccc4n23)cc1 -17.2%
CCc1ccccc1NC(=O)Cn1ccn(Cc2ccccc2)c(=O)c1=O -11.1%
CC1CCCCN1C(=O)CCS(=O)(=O)c1cc2c(cc1Cl)NC(=O)CO2 (stereo not drawn) -5.26%
COc1cccc(CNCCCSc2nnnn2C)c1OC 3.63%
CCS(=O)(=O)c1nc(S(=O)(=O)c2ccc(C)cc2)c(NC)s1 -15.7%
Cc1cccc(C(=O)N2CCc3cc(CNS(=O)(=O)c4ccc(F)c(Cl)c4)ccc32)c1 -10.3%
CC(=O)Nc1c(C)nn(-c2ccccc2)c1N1CCC(C(=O)Nc2ccccc2F)CC1 3.57%
O=C(Nc1ccccc1)N(Cc1cccc(Cl)c1)c1ccccn1 -11.8%
Cn1c2ccccc2c2cnn(CC(=O)NCCCN3CCN(c4ccccc4F)CC3)c(=O)c21 -6.02%
CCCCN1C[C@H](O)[C@@H](O)[C@H](O)[C@H]1CO 2.73%
COc1ccc(NC(=O)c2ccco2)cc1NC(=O)c1c(OC)cccc1OC 3.53%
CCOc1ccc(CN2C(=O)c3ccccc3C2C(=O)NCCc2ccc(OC)c(OC)c2)cc1 (stereo not drawn) -3.79%
CCOC(=O)c1c(S(=O)(=O)N2CCC(C(=O)Nc3ccc(F)cc3F)CC2)c(C)n(C)c1C -21.2%
COc1ccc(Cn2c(CO)cnc2SCc2ccccc2C)cc1 61.1%
COc1ccc(CNC(=O)Cc2c(C)c3cc4c(C)coc4c(C)c3oc2=O)cc1OC -4.9%
Cc1ccc(C)c(NC(=O)C2CCN(c3cc(C)nc4c(-c5ccc(Cl)cc5)c(C)nn34)CC2)c1 -14.7%
COc1ccc(-n2cc(C(=O)Oc3cc(C)cc(C)c3)c3ccccc3c2=O)cc1 -0.645%
COc1cccc(NC(=O)Cn2cc(C(=O)c3ccco3)c3ccccc32)c1 -18.8%
Cc1ccc(-n2c(SCC(=O)c3ccccc3)nc3c([nH]c4ccccc43)c2=O)cc1 -15.3%
c1ccc2c(c1)CCCC2C1=NCCN1 (stereo not drawn) 11.3%
O=C(Nc1ccc2oc(-c3cccc(F)c3)nc2c1)c1ccc2ccccc2c1 2.9%
Cc1cc(C)cc(NC(=O)c2cc(S(=O)(=O)N3CCc4ccccc43)cn2C)c1 -21.6%
COc1cccc(NC(=O)Cn2c(=O)n(CCCCC(=O)NCc3ccccc3Cl)c(=O)c3ccccc32)c1 -14.3%
CCCCC(Sc1nc2cc3c(cc2c(=O)n1CCCC(=O)NCc1ccc2c(c1)OCO2)OCO3)C(=O)OCC (stereo not drawn) -8.62%
O=C(CSc1ncc(S(=O)(=O)c2ccc(Br)cc2)c(=O)[nH]1)Nc1ccc2c(c1)OCCO2 5.75%

Potency, active:
CC(=O)c1ccc(N2CCN(C(=O)Nc3ccc(C(C)C)cc3)CC2)cc1 22.4 µM
